Assay results: the supplement of paper PMC8728848
Some of the results follow.

Experiments:
Test in all cases: glycan array binding signal (z-score within array); higher = stronger binding
Conditions in all cases: glycan notation: IUPAC condensed, linker removed
[1] = target: Fuc(a1-2)Gal(b1-4)GlcNAc(b1-3)Gal(b1-4)GlcNAc(b1-3)Gal(b1-4)GlcNAc
Procedure, shortened: (§1)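 Arrays were curated from the Consortium for Functional Glycomics database, 3228 in total, and kept only where the protein sequence was available. Binding is expressed as a within-array Z-score. This score was averaged across arrays of the same protein sequence at different concentrations or buffers and across linkers, and negative values can be read as non-binding.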

[2] = target: Fuc(a1-2)Gal(b1-4)GlcNAc(b1-3)GalNAc
Procedure, shortened: as §1

[3] = target: Fuc(a1-2)Gal(b1-4)GlcNAc(b1-3)[Fuc(a1-2)Gal(b1-4)GlcNAc(b1-6)]GalNAc
Procedure, shortened: as §1

[4] = target: Fuc(a1-2)Gal(b1-4)GlcNAc(b1-3)[Fuc(a1-3)[Gal(b1-4)]GlcNAc(b1-6)]Gal(b1-4)Glc
Procedure, shortened: as §1

[5] = target: Fuc(a1-2)Gal(b1-4)GlcNAc(b1-6)GalNAc
Procedure, shortened: as §1

[6] = target: Fuc(a1-2)Gal(b1-4)GlcNAc6S
Procedure, shortened: as §1

[7] = target: Fuc(a1-2)Gal(b1-4)[Fuc(a1-3)]GlcNAc
Procedure, shortened: as §1

[8] = target: Fuc(a1-2)Gal(b1-4)[Fuc(a1-3)]GlcNAc(b1-2)Man(a1-3)[Fuc(a1-2)Gal(b1-4)[Fuc(a1-3)]GlcNAc(b1-2)Man(a1-6)]Man(b1-4)GlcNAc(b1-4)[Fuc(a1-6)]GlcNAc
Procedure, shortened: as §1

[9] = target: Fuc(a1-2)Gal(b1-4)[Fuc(a1-3)]GlcNAc(b1-2)[Fuc(a1-2)Gal(b1-4)[Fuc(a1-3)]GlcNAc(b1-4)]Man(a1-3)[Fuc(a1-2)Gal(b1-4)[Fuc(a1-3)]GlcNAc(b1-2)Man(a1-6)]Man(b1-4)GlcNAc(b1-4)GlcNAc
Procedure, shortened: as §1

[10] = target: Fuc(a1-2)Gal(b1-4)[Fuc(a1-3)]GlcNAc(b1-3)Gal(b1-4)[Fuc(a1-3)]GlcNAc
Procedure, shortened: as §1

[11] = target: Fuc(a1-2)Gal(b1-4)[Fuc(a1-3)]GlcNAc(b1-3)Gal(b1-4)[Fuc(a1-3)]GlcNAc(b1-3)Gal(b1-4)[Fuc(a1-3)]GlcNAc
Procedure, shortened: as §1

[12] = target: Fuc(a1-2)Gal(b1-4)[Fuc(a1-3)]GlcNAc(b1-3)GalNAc
Procedure, shortened: as §1

[13] = target: Fuc(a1-2)Gal(b1-4)[Fuc(a1-3)]GlcNAc(b1-3)[Neu5Ac(a2-6)Gal(b1-4)GlcNAc(b1-6)]Gal(b1-4)Glc
Procedure, shortened: as §1

[14] = target: Fuc(a1-2)Gal3S(b1-4)GlcNAc
Procedure, shortened: as §1

[15] = target: Fuc(a1-2)Gal6S(b1-3)GlcNAc
Procedure, shortened: as §1

[16] = target: Fuc(a1-2)Gal6S(b1-3)GlcNAc6S
Procedure, shortened: as §1

[17] = target: Fuc(a1-2)Gal6S(b1-4)Glc
Procedure, shortened: as §1

[18] = target: Fuc(a1-2)Gal6S(b1-4)Glc6S
Procedure, shortened: as §1

[19] = target: Fuc(a1-2)[Gal(a1-3)]Gal
Procedure, shortened: as §1

[20] = target: Fuc(a1-2)[Gal(a1-3)]Gal(b1-3)GalNAc
Procedure, shortened: as §1

[21] = target: Fuc(a1-2)[Gal(a1-3)]Gal(b1-3)GalNAc(b1-3)Gal(a1-4)Gal(b1-4)Glc
Procedure, shortened: as §1

[22] = target: Fuc(a1-2)[Gal(a1-3)]Gal(b1-3)GlcNAc
Procedure, shortened: as §1

[23] = target: Fuc(a1-2)[Gal(a1-3)]Gal(b1-3)GlcNAc(b1-2)Man(a1-3)[Fuc(a1-2)[Gal(a1-3)]Gal(b1-3)GlcNAc(b1-2)Man(a1-6)]Man(b1-4)GlcNAc(b1-4)GlcNAc
Procedure, shortened: as §1

[24] = target: Fuc(a1-2)[Gal(a1-3)]Gal(b1-3)GlcNAc(b1-2)Man(a1-3)[Fuc(a1-2)[Gal(a1-3)]Gal(b1-3)GlcNAc(b1-2)Man(a1-6)]Man(b1-4)GlcNAc(b1-4)[Fuc(a1-6)]GlcNAc
Procedure, shortened: as §1

[25] = target: Fuc(a1-2)[Gal(a1-3)]Gal(b1-3)GlcNAc(b1-3)GalNAc
Procedure, shortened: as §1

[26] = target: Fuc(a1-2)[Gal(a1-3)]Gal(b1-3)GlcNAc(b1-6)GalNAc
Procedure, shortened: as §1

[27] = target: Fuc(a1-2)[Gal(a1-3)]Gal(b1-4)Glc
Procedure, shortened: as §1

[28] = target: Fuc(a1-2)[Gal(a1-3)]Gal(b1-4)GlcNAc
Procedure, shortened: as §1

[29] = target: Fuc(a1-2)[Gal(a1-3)]Gal(b1-4)GlcNAc(b1-2)Man
Procedure, shortened: as §1

[30] = target: Fuc(a1-2)[Gal(a1-3)]Gal(b1-4)GlcNAc(b1-2)Man(a1-3)[Fuc(a1-2)[Gal(a1-3)]Gal(b1-4)GlcNAc(b1-2)Man(a1-6)]Man(b1-4)GlcNAc(b1-4)GlcNAc
Procedure, shortened: as §1

[31] = target: Fuc(a1-2)[Gal(a1-3)]Gal(b1-4)GlcNAc(b1-2)Man(a1-3)[Fuc(a1-2)[Gal(a1-3)]Gal(b1-4)GlcNAc(b1-2)Man(a1-6)]Man(b1-4)GlcNAc(b1-4)[Fuc(a1-6)]GlcNAc
Procedure, shortened: as §1

[32] = target: Fuc(a1-2)[Gal(a1-3)]Gal(b1-4)GlcNAc(b1-3)GalNAc
Procedure, shortened: as §1

[33] = target: Fuc(a1-2)[Gal(a1-3)]Gal(b1-4)GlcNAc(b1-3)[Fuc(a1-2)[Gal(a1-3)]Gal(b1-4)GlcNAc(b1-6)]GalNAc
Procedure, shortened: as §1

[34] = target: Fuc(a1-2)[Gal(a1-3)]Gal(b1-4)GlcNAc(b1-6)GalNAc
Procedure, shortened: as §1

[35] = target: Fuc(a1-2)[Gal(a1-3)]Gal(b1-4)[Fuc(a1-3)]Glc
Procedure, shortened: as §1

[36] = target: Fuc(a1-2)[Gal(a1-3)]Gal(b1-4)[Fuc(a1-3)]GlcNAc
Procedure, shortened: as §1

[37] = target: Fuc(a1-2)[Gal(a1-3)]Gal(b1-4)[Fuc(a1-3)]GlcNAc(b1-3)GalNAc
Procedure, shortened: as §1

B1: PX14375l-pdi-526-25-526 (Parabacteroides distasonis) (protein)
chain: DEEPKSTLTDVAYYKTQSQMESNVNYLYRTGAIGSYVDFGSAYIGPFASIQEELTGYFSNSYEGQEIVCRYTRELTRQQNTMQLASKMDKVWDDCYRGINVANGAIKHMPEVPMDQATADRLTAEAKFFRAFNYFYLVKTFGAVPFYTDPYELAENMELPRTETSTIYNQIESDLKDAMNVLPEATFAANGHRITKYVAAMTLTDVYMYQHKYAEAAETVRIVVNSNHKLTTNDDLAMNSAFNKLRSTDDLDEAIYAYEYDNQISPSNWLPTYAFDGDASSNGLFGTYAITQKVHGPNDRYLNIYESNDLRRQPNQFYHWTYTNPKTGKVWNSVGNAACCWYYYDEDALLTTGRGTKDWNVYRYAEALLDAAESIAQSTGVTAEAAGYLAQVKARANMEGKTAAEIASSLQSMGKQAFIEECWTERLRELPLEFKMWDMCVRTGMFPNISETTPGQVTYIPLVGAKNASGATIKESDLLWPLSVNEIQRNPSLTQNEGYSAK
For B1, the “glycan array binding signal (z-score)” value [1] was -0.26, the “glycan array binding signal (z-score)” value [2] was -0.2 and the “glycan array binding signal (z-score)” value [3] was -0.357. For the same binder, the “glycan array binding signal (z-score)” value [4] was -0.057, the “glycan array binding signal (z-score)” value [5] was -0.108 and the “glycan array binding signal (z-score)” value [6] was -0.195. For the same binder, the “glycan array binding signal (z-score)” value [7] was -0.062, the “glycan array binding signal (z-score)” value [8] was 1.79 and the “glycan array binding signal (z-score)” value [9] was -0.201. The “glycan array binding signal (z-score)” value [10] was 0.041, the “glycan array binding signal (z-score)” value [11] was -0.366 and the “glycan array binding signal (z-score)” value [12] was 3.32. The “glycan array binding signal (z-score)” value [13] was -0.335, the “glycan array binding signal (z-score)” value [14] was -0.205 and the “glycan array binding signal (z-score)” value [15] was 0.623. The “glycan array binding signal (z-score)” value [16] was -0.031, the “glycan array binding signal (z-score)” value [17] was -0.203 and the “glycan array binding signal (z-score)” value [18] was 0.048. The “glycan array binding signal (z-score)” value [19] was -0.19, the “glycan array binding signal (z-score)” value [20] was -0.298 and the “glycan array binding signal (z-score)” value [21] was -0.21. The “glycan array binding signal (z-score)” value [22] was -0.261, the “glycan array binding signal (z-score)” value [23] was 1.25 and the “glycan array binding signal (z-score)” value [24] was 0.373. For the same binder, the “glycan array binding signal (z-score)” value [25] was -0.223, the “glycan array binding signal (z-score)” value [26] was -0.218 and the “glycan array binding signal (z-score)” value [27] was -0.368. For the same binder, the “glycan array binding signal (z-score)” value [28] was 0.049, the “glycan array binding signal (z-score)” value [29] was 0.352 and the “glycan array binding signal (z-score)” value [30] was 0.036. The “glycan array binding signal (z-score)” value [31] was -0.119, the “glycan array binding signal (z-score)” value [32] was -0.08 and the “glycan array binding signal (z-score)” value [33] was -0.073. For the same binder, the “glycan array binding signal (z-score)” value [34] was -0.095, the “glycan array binding signal (z-score)” value [35] was -0.245 and the “glycan array binding signal (z-score)” value [36] was -0.204. The “glycan array binding signal (z-score)” value [37] was -0.207.
